Laboratory results as given in PubChem BioAssay AID463173 (ICCB-Longwood Screening Facility, Harvard Medical School, 2010).
Screen size: about 52,000 compounds; about 1,700 (3.3%) were called active. Rule as the data show it: active = survival mostly below about 52% (no sharp cut-off); inactive = mostly above about 56%. Some of the results follow.

What follows are compounds tested on Wild type (assay: growth inhibition of S. aureus wild type versus tarO mutant, primary screen, teichoic acid synthesis inhibitors, RN4220, OD600 (AID 463173)). Conditions: S. aureus RN4220 wild type/DeltatarO growth, OD600, 18 h, hits give low values, screened at 18.75 µg/mL (by protocol).

Structure (SMILES)	survival
CCC(=O)N1CCc2cc(CNS(=O)(=O)c3ccc(Br)s3)ccc21	inactive: 60%
O=C(c1ccccc1Cl)N(Cc1ccco1)Cc1cc2cc3c(cc2nc1Cl)OCO3	inactive: 111%
CCN1CCN(C(c2ccccc2F)c2c(O)cc(C)n(CCOC)c2=O)CC1 (centres undefined)	inactive: 45%
CCc1c(C)sc2c1CCN(C(=O)Nc1cc(C)ccc1OC)C2c1ccc(F)cc1 (centres undefined)	inactive: 148%
COc1ccc(-c2c(C)nn3c(N4CCN(c5ccccc5F)CC4)cc(C)nc23)cc1OC	inactive: 80%
Cc1ccc(NS(=O)(=O)c2ccc3[nH]c4c(c3c2)CCCCCC4)cc1	inactive: 71%
O=C(C1CC2c3ccccc3C1c1ccccc12)N1CCOCC1 (centres undefined)	inactive: 111%
CC1CCCN(S(=O)(=O)c2ccc(N3CCCCS3(=O)=O)cc2)C1 (centres undefined)	inactive: 91%
CCCN(CCC)CCNC(=O)c1sc2nc3n(c(=O)c2c1C)CCCCC3	inactive: 85%
Cc1ccc(C)c(N2C(=O)N(C)c3ccccc3S2(=O)=O)c1	inactive: 112%
COC(=O)c1c(NC(=O)c2nc(SCc3ccccc3C)ncc2Cl)sc2c1CCCC2	inactive: 123%
COc1ccc(-n2c(C)nc3cc(C(=O)NC4CCCCCC4)ccc32)cc1	inactive: 133%
CCc1cccc(NC(=O)C2CCC(CNS(=O)(=O)c3ccc4c(c3)CCCC(=O)N4)CC2)c1 (centres undefined)	inactive: 66%
CCOc1ccc(CCNC(=O)Cn2ncc3c([nH]c4ccccc43)c2=O)cc1OCC	inactive: 75%
Cc1cncn1CCc1nc2c3ccccc3nc(SCC(=O)Nc3ccc(F)cc3)n2n1	inactive: 70%
CCOc1ccccc1CNC(=O)c1cnc2sc(N3CCOCC3)nn2c1=O	inactive: 74%
CCN(C(=O)Cn1c(=O)nc(-c2ccccc2)c2cc(Cl)ccc21)c1cccc(C)c1	inactive: 85%
CCOc1ccc(-n2c(SCC(=O)Nc3ccc4c(c3)OCCO4)nc3c([nH]c4ccccc43)c2=O)cc1	inactive: 121%
Clc1ccccc1-c1nnc(-c2ccccc2CNc2ccc(Br)cc2)o1	inactive: 91%
CCc1nc2ccc(C(=O)NCc3ccc(SC)cc3)cc2nc1CC	inactive: 68%
OCCN1CCN(C(c2ccc(Cl)cc2Cl)c2sc3nc(-c4ccco4)nn3c2O)CC1 (centres undefined)	inactive: 77%
CC(=O)Nc1nc(C(=O)O)cs1	inactive: 116%
CCOc1ccccc1NC(=O)CCc1c(C)nc2c(c(C)nn2-c2ccccc2)c1C	inactive: 73%

Structure (SMILES)	survival
C#CCSc1nc(-c2ccccc2)c2cc(Cl)ccc2n1	inactive: 77%
COc1ccc(-c2cc(OC(=O)c3ccccc3)c3c(C)oc(C)c3c(=O)c2)cc1OC	inactive: 83%
CC(C)c1ccc2c(c1)NC(c1ccncc1)=NC(c1cccs1)=N2	inactive: 111%
COc1cccc(NC(CNS(=O)(=O)c2ccc(Cl)cc2)c2ccccc2)c1 (centres undefined)	inactive: 89%
CCc1cccc(NC(=O)C(NS(=O)(=O)c2ccc3nc(C)sc3c2)C(C)C)c1 (centres undefined)	inactive: 88%
O=C(CCS(=O)(=O)c1cc(Br)cc2c1N(C(=O)C1CC1)CC2)Nc1ccc(F)cc1	inactive: 130%
Cc1ccc(CNC(=O)c2sc3nc(-c4ccccc4)cn3c2C)cc1	inactive: 124%
Cc1ccc(Cl)cc1N1CCN(C(=O)c2ccc3c(c2)N(Cc2ccccc2F)C(=O)c2ccccc2S3=O)CC1 (centres undefined)	inactive: 87%
CC(C)Cn1c(=O)c2ccccc2n2c(CCC(=O)NCc3ccc(Cl)cc3)nnc12	inactive: 92%
CCN(CCCNC(=O)c1cc2cc3ccc(OC)cc3nc2s1)c1cccc(C)c1	inactive: 81%
CCCN1C(=O)c2[nH]nc(-c3cccc(OC)c3)c2C1c1ccccn1 (centres undefined)	inactive: 93%
O=C(NCc1ccc(F)cc1)c1ccc(Cn2c(SCc3ccc(F)cc3)nc3cccnc32)cc1	inactive: 78%
Cc1cc(C)cc(-n2c(C)nc3cc(C(=O)NCc4ccc(F)cc4)ccc32)c1	inactive: 138%
Cn1nnc2c(NCc3ccccc3)ncnc21	active: 0%
CCC(C)NC(=O)c1ccc2c(c1)N(Cc1ccccc1F)C(=O)c1ccccc1S2=O (centres undefined)	inactive: 86%
Cc1cc(C)cc(NC(=O)c2cnn(-c3ccc(C)c(C)c3)c2C2CCNCC2)c1	inactive: 73%
O=C(CCC(=O)N1CCSc2ccccc21)NCc1ccccc1Cl	inactive: 79%
CCOc1ccc(CCNC(=O)c2cn(-c3cccc(OC)c3)c(=O)c3ccccc23)cc1	inactive: 87%
COc1cc(S(=O)(=O)N2CCCCC2C)c(OC)cc1Cl (centres undefined)	inactive: 105%
CCCCn1c(=N)c(C(=O)NC2CCCCC2)cc2c(=O)n3cccc(C)c3nc21	inactive: 75%
Cc1ccc(F)c(NC(=O)C2CCCCC2C(=O)O)c1 (centres undefined)	inactive: 108%
Cn1c(=O)oc2cc(S(=O)(=O)NCCC(=O)NCc3ccc(F)cc3)ccc21	inactive: 78%
CCOC(=O)c1c(C)oc2nc(C)nc(NCCCN3CCN(c4ccc(F)cc4)CC3)c12	inactive: 72%

Structure (SMILES)	survival
CC(CNS(=O)(=O)c1ccc2c(c1)CC(=O)N2C)c1ccccc1 (centres undefined)	inactive: 143%
Cc1ccc(C(C)C)c(OCCCn2c(=O)oc3ccccc32)c1	active: -2%
COc1ccc(C(=O)NCCn2cc(SCc3cc(C)ccc3C)c3ccccc32)cc1	inactive: 62%
COc1ccccc1NC(=O)c1ccc2oc(=O)c(S(=O)(=O)c3ccccc3)cc2c1	inactive: 74%
O=C(NC(=S)N1CCCC(C(F)(F)F)C1)c1ccc(F)cc1 (centres undefined)	inactive: 112%
Cc1cc(N2CCN(c3cccc(C)c3C)CC2)n2nc(C)c(-c3ccc(Cl)cc3)c2n1	inactive: 88%
COc1ccc(-n2c(-c3ccco3)nc3c(cnn3-c3ccccc3C)c2=O)cc1	inactive: 122%
Cc1ccccc1CNC(=O)c1cc2cc(S(=O)(=O)N3CCCCC3)ccc2n1C	inactive: 66%
CCOc1ccc(C2c3c(oc4ccccc4c3=O)C(=O)N2c2nnc(C)s2)cc1OC (centres undefined)	inactive: 85%
Cc1cc(C)c2oc(C(=O)Nc3ccc(S(=O)(=O)N4CCC(C)CC4)cc3)cc(=O)c2c1	inactive: 80%
Cc1ccc(CN2CCN(C3CCN(C(=O)Nc4ccccc4C(F)(F)F)CC3)C(=O)C2=O)cc1	inactive: 72%
Cc1cc(C)n2c(Nc3ccccc3)c(-c3ccccc3)nc2n1	inactive: 86%
Cc1cccc(Cn2cnc3c(cnn3-c3ccc(Cl)cc3)c2=O)c1	inactive: 97%
Cn1c(CNC(=O)CSc2nc(-c3cccc(Cl)c3)nc3cc(=O)[nH]n23)nc2ccccc21	inactive: 128%
CCn1c(=O)cc(OCC(=O)N2CCN(c3ccccc3OC)CC2)c2ccccc21	inactive: 79%
Cc1ccc(S(=O)(=O)n2nc(-c3ccco3)nc2NCc2ccccc2Cl)cc1	inactive: 85%
Cc1cccc(Cn2nnc(C(=O)Nc3cc(C)ccc3C)c2N)c1	inactive: 95%
Cc1cccc(C)c1NC(=O)CCCN1C(=O)CCn2nc(-c3cn(C)c4ccccc34)cc21	inactive: 136%
COc1cccc(NC(=O)C2CCN(c3nc4ccccc4nc3C(F)(F)F)CC2)c1	inactive: 47%
CC(C)NC(=O)C1CCCN(c2ncnc3c2nc2n3CCCCC2)C1 (centres undefined)	inactive: 73%
Cc1ccc(CNC(=O)CCCn2c(=O)c3ccccc3n(Cc3ccccc3C)c2=O)cc1	inactive: 84%
CC(NC(=O)c1ccc2c(c1)N(Cc1ccc(Cl)cc1)C(=O)c1ccccc1S2=O)c1ccccc1 (centres undefined)	inactive: 99%
CC(C)C(=O)N1C2CCC1CC(O)(c1ccccc1F)C2 (centres undefined)	inactive: 101%

Structure (SMILES)	survival
Cc1cc(C)c2sc(NC(=O)c3ccc(S(=O)(=O)N4CCOCC4)cc3)nc2c1	inactive: 95%
COc1ccc(C(=O)NCC(c2ccc(N(C)C)cc2)N2CCc3ccccc32)cc1 (centres undefined)	inactive: 128%
Cn1c(=O)n(C)c2cc(N3CCOCC3)c(NC(=O)c3c(F)cccc3F)cc21	inactive: 98%
CCCN1CCN(c2cc3c(cc2F)c(=O)c(S(=O)(=O)c2ccc(Cl)cc2)cn3C)CC1	inactive: 70%
O=C(NC1CC(=O)N(c2cccc(F)c2)C1)C(c1ccccc1)c1ccccc1 (centres undefined)	inactive: 71%
CCc1cc2c(-c3ccccc3)cc(=O)oc2c2c1OCN(Cc1ccc(F)cc1)C2	inactive: 81%
COc1cc(OC)c(NC(=O)Nc2c(C)n(C)n(-c3ccccc3)c2=O)cc1Cl	inactive: 69%
CON(C)c1nc(Cl)nc(N(C)C)n1	inactive: 84%
CCOc1ccc(CNC(=O)C2Cc3ccccc3N2C(=O)CC)cc1 (centres undefined)	inactive: 83%
COC(=O)c1ccccc1NC(=O)c1ccc2c(=O)n3c(nc2c1)CCCCC3	inactive: 113%
CCC(Oc1ccccc1)C(=O)Nc1ccc(OCc2cc(=O)n3ccccc3n2)cc1 (centres undefined)	inactive: 73%
O=C(CN1C=NS(=O)(=O)c2ccc(C(F)(F)F)cc21)Nc1cccc(C(F)(F)F)c1	inactive: 76%
COc1ccc(Nc2c3c(nc4ccc(NC(=O)/C=C/c5cccc(OC)c5OC)cc24)CCCC3)cc1OC	inactive: 78%
CCOC(=O)c1cc(NC(=O)c2ccc(Cl)cc2)c(=O)n2c1oc1ccccc12	inactive: 65%
CC(=O)NC1C(=O)N(CCc2ccccc2)c2ccc(C)cc21 (centres undefined)	inactive: 65%
O=C(Nc1ccc(Br)cc1)c1cccc(C(=O)Nc2ccc(Br)cc2)c1	inactive: 80%
O=S(=O)(c1ccc(Cl)cc1)c1nc(-c2ccccc2)oc1N1CCN(c2ccccc2)CC1	inactive: 87%
Cc1cccc(C=Nc2ccc3[nH]ncc3c2)c1O	inactive: 96%
CCc1nc(SCc2cc(=O)c3cc(C)ccc3[nH]2)n[nH]1	inactive: 74%
CCc1cccc(NC(=O)CSc2nc3ccsc3c(=O)n2CC)c1	inactive: 60%
